According to publication PMC12136788:
Some of the results follow.

T1: UNK ZnF1-3 (human, UniProt Q9C0B0 31-174)
T1 sequence: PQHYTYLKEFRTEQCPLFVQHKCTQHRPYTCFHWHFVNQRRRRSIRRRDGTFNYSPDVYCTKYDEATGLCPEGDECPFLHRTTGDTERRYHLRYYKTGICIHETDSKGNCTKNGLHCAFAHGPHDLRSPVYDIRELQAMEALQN

B1: chr7:141438946:141438947:+_ENSG00000106028_ENST00000265304|hu_mus|hu_hu_hu_mus_True|88_88 (ssRNA)
RNA: GGGAGUUCUACAGUCCGACGAUCGACGAAAUACCUGUAACACAGGUGAAACAUGGCUGGCUUCUGUUUUUCUUACAACCUAAUCUUUAGGCUUUUCCUAAAGGAAAGAAAGAAAAGAGAAAAAUGAUAAAUCAAGAAACUACACAACAGAGGAUUGAGCAUCA
B2: chrX:135579806:135579807:+_ENSG00000102241_ENST00000218364|hu_mus|FALSE|FALSE (ssRNA)
RNA: GGGAGUUCUACAGUCCGACGAUCCAAGUUGUUGCCACUCAUGGUUCUCACGUAGUCCCGGACACCGCGGUCAGAGAAGUGAAGAGGCCGAGAGGGCGCUGGCGGGCUCCGCAGGGCCUCGCCGCCGCCGCUGCUGGGGCCAGGCAACAGAGGAUUGAGCAUCA
B3: chr3:38349274:38349275:-_ENSMUSG00000044864_ENSMUST00000156038|mus_hu|motif|central (ssRNA)
RNA: GGGAGUUCUACAGUCCGACGAUCGAAACAAAUAAGCAAGGCAGGGCAUCUCCAGCACCCAUCCUAUCAUCCUUAUCCGGACUCAAAGUCAUUUAUGUUCUAUUCCAAAACAUAAUUUAUAUAAAAACAUCCCGAGGAAUACUUCAACAGAGGAUUGAGCAUCA
B4: chr19:16212804:16212805:+_ENSG00000167460_ENST00000300933|hu_mus|hu_hu_hu_mus_False|18_78 (ssRNA)
RNA: GGGAGUUCUACAGUCCGACGAUCAACAAUUCUGGAGUGAAGGAAAGAUGUAACAUGCAAUUAAUUAAAAGCUCAGUCAGAAGGCACAUGGGCAACAAUGAUCACCCCAGCAUUCUCCUACGUUGACCUUAAAGACAAUCUGUUCAACAGAGGAUUGAGCAUCA
B5: chr7:141450121:141450122:+_ENSG00000106028_ENST00000265304|hu_mus|hu_hu_hu_mus_True|88_88 (ssRNA)
RNA: GGGAGUUCUACAGUCCGACGAUCUCAUCCGUUCUAUGCCUUUUCUUUCGUCUGGUCACUCAGAAAUAUAAUGUUAUCAGCUAUGAUUGUUGUUGCUUGCCGCCUCACAUUGUUUUUAUCCAUGUACUCGCCAUAGUCCACUUUCAACAGAGGAUUGAGCAUCA
B6: chr13:48664549:48664550:-_ENSG00000136146_ENST00000378586|hu_mus|motif|central (ssRNA)
RNA: GGGAGUUCUACAGUCCGACGAUCCUGGUUUUCCUCUUCCAGCUGUAAUAGCUUCUGAUUUCUUGAAAUUGCAAGCAUUUCGGUGAGUUCCCUCGACAAGACCUCCAGAUCUUCCAGCGCAGACAGAAGCCGCUCUCGCGUACUCAACAGAGGAUUGAGCAUCA
B7: chr1:39494564:39494565:+_ENSG00000168653_ENST00000372967|hu_hu|hu_hu_hu_mus_True|68_78 (ssRNA)
RNA: GGGAGUUCUACAGUCCGACGAUCAUGCAUUCGCCUCAUCGUUUUGUACCGAAGCAAACACUCUACGAAAUCAUCAUACUCUAUCUUGCACUCCUUUUUCGCCCGGGUCCCACCGAUCCCGUGUGCACACUCUAUCCACUCUUUCAACAGAGGAUUGAGCAUCA
B8: chr8:117866615:117866616:-_ENSG00000164754_ENST00000297338|hu_mus|motif|central (ssRNA)
RNA: GGGAGUUCUACAGUCCGACGAUCAAGCUUCUUGGUUGGCGGAGCCAGGUCCAGAGUCGUAACAAUAUCAGAAUAAUCGCGGAGCUGGGCUCUAAUGGUCUUACUAUCCAAUUCUUUGACACUGUCAACAAUCAGCUUCCUCUUCAACAGAGGAUUGAGCAUCA
B9: chr12:39756943:39756944:-_ENSG00000139116_ENST00000544797|hu_mus|hu_hu_hu_mus_False|8_108 (ssRNA)
RNA: GGGAGUUCUACAGUCCGACGAUCGGUUUGGCUAUUACCCCCAAGGGAAUCCUGCAAGAGUCUUGUCAGCUUAGAGUCUCUGUAAGGGACAUGGGUGGCUCUCUUGCUCUUGUCCCCCAAGGCGCUGAUUACAUUGCCAAGAGCCAACAGAGGAUUGAGCAUCA
B10: chr15:103023306:103023307:-_ENSMUSG00000009575_ENSMUST00000118152|mus_mus|motif|central (ssRNA)
RNA: GGGAGUUCUACAGUCCGACGAUCAGAAACUCACCAAGGUCACUAAGUACUUCCAAACUUGGAAGUAGCUCAGUGAGGGCGGAAAAAACUUCGACUGAAGGUAUCCUCCACAGGCAAUCCUAAAGGAGUUGAUCAGCUCUGAUCCAACAGAGGAUUGAGCAUCA
B11: chr17:21098601:21098602:+_ENSMUSG00000007564_ENSMUST00000007708|mus_hu|FALSE|FALSE (ssRNA)
RNA: GGGAGUUCUACAGUCCGACGAUCGGCCAAGACCUUGGGGAUGAUUGUGGCAUGGGCCCACUCCUUCCCAAACUUUUCCACUAGCUUCUUCAGGUUGCUGGUGGCUGCCUCGCGGAUGGCAUAUACAUGAUCCACAAGCCAGGCCAACAGAGGAUUGAGCAUCA
B12: chr8:87366250:87366251:-_ENSMUSG00000003814_ENSMUST00000003912|mus_mus|FALSE|FALSE (ssRNA)
RNA: GGGAGUUCUACAGUCCGACGAUCGAGCAGAUGAAAUCUCAAGCCUAGGGCUUCUCCUCUACACCCCUGUUCCUAGAGUUGGAGGGUAGUGACCAAAAGAUGGAGAAAGGGAGGGACAGAAGGAAAAGAUGUUGAUUCAAAAAUCAACAGAGGAUUGAGCAUCA
B13: chr1:39494447:39494448:+_ENSG00000168653_ENST00000372967|hu_mus|hu_hu_hu_mus_False|58_88 (ssRNA)
RNA: GGGAGUUCUACAGUCCGACGAUCGCACCGAGCGGCGUUCUUAUAGGGCUGUUCACCGCUUAGGAACAUAAAGUGCCGAUCUAUGUUGAUGCCCAGCUUUUUCUGUAUGUCAAGGAAAGGCAUGGCUCUGCAGUGCCCUUGUCACAACAGAGGAUUGAGCAUCA
B14: chr2:47387610:47387611:-_ENSG00000143933_ENST00000272298|hu_hu|motif|central (ssRNA)
RNA: GGGAGUUCUACAGUCCGACGAUCACGCAGAGUUACAACUCCACACUUCAACAACAACAUGCUGACAGUUCCUAAAGAAAACGGCUUUAAAAAAGGCAUAACCCAGAUGUUCCCUCAUUUGACCAACUCCAUCUAAGUUUAGAUCAACAGAGGAUUGAGCAUCA

Target: T1, UNK ZnF1-3
Assay: nsRBNS (natural sequence RNA bind-n-seq); RBNS binding buffer (assumed for nsRBNS): 25 mM Tris pH 7.5, 150 mM KCl, 3 mM MgCl2, 0.01% Triton X-100, 500 ug/ml BSA, 20 U/ml SUPERase-In, 4 C; UNK is unkempt and MSI1 is Musashi-1; names of the RNAs are library labels; protein concentration not given here; high values mean tight binding

Binder | binding signal [enrichment R]
B1 | 0.798
B2 | 0.833
B3 | 1.39
B4 | 1.05
B5 | 0.413
B6 | 0.759
B7 | 0.667
B8 | 0.869
B9 | 0.65
B10 | 1.04
B11 | 1.02
B12 | 1.61
B13 | 0.701
B14 | 1.06
